# The whole screen tested about 310,000 compounds, of which about 2,200 (0.71%) showed an effect of 50% or more. Effects have a minus sign here. Some of the results follow.
# Target: human ether-à-go-go-related gene (hERG) potassium channel (human, UniProt Q12809)
# Test: primary screen, population patch clamp on CHO cells stably expressing hERG
# human ether-à-go-go-related gene (hERG) potassium channel, sequence (Q12809 whole entry, looked up): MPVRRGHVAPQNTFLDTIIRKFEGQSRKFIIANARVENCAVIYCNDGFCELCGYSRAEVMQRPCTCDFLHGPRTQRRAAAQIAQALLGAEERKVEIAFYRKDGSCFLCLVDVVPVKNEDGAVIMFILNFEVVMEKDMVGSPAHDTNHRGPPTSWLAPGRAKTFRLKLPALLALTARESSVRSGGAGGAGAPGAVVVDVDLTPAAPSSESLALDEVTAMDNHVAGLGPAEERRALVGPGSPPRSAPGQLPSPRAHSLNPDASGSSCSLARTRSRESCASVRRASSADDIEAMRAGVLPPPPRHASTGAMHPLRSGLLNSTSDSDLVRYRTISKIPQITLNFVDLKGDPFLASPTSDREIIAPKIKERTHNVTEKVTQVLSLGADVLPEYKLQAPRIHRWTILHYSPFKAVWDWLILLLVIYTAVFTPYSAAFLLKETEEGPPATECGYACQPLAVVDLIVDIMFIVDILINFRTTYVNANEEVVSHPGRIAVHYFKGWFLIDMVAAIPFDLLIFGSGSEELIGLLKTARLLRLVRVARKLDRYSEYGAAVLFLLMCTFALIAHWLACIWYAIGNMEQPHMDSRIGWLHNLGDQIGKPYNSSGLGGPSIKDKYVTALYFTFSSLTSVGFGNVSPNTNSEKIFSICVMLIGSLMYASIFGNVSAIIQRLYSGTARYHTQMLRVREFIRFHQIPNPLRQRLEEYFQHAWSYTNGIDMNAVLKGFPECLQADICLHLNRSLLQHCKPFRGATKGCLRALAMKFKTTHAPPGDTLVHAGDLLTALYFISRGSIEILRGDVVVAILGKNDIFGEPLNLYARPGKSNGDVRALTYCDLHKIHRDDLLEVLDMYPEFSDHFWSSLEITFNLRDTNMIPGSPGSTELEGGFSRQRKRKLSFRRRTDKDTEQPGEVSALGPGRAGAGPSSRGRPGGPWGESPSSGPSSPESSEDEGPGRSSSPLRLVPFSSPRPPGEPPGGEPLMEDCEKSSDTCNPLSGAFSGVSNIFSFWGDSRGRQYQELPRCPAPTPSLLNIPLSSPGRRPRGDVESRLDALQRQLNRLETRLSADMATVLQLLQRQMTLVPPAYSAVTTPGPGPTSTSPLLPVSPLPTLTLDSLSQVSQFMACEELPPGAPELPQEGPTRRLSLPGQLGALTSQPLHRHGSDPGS
row,SMILES,"hERG current change (%, negative = inhibition) at 1uM [%]"
1,O=C(CSc1nc(O)cc(=O)n1C1CCCC1)Nc1cccc(Cl)c1Cl,8.35
2,Cc1c(C(=O)C(=O)NCC2CCCO2)c2ccccc2n1C (stereo not shown),9.67
3,O=C(NCCc1ccccc1)c1cnc2ccccn2c1=O,8.72
4,CCOC(=O)C1CCN(C(=O)c2ccc3c(c2)NC(=O)/C(=C\c2cccc(C)c2)S3)CC1,15.4
5,COc1ccc(F)c(CN2CCC(N3CCC(C(=O)N4CCOCC4)CC3)CC2)c1,-9.52
6,COc1ccc(S(=O)(=O)NCc2ccc3c(c2)OCO3)cc1OC,12.8
7,O=C(Nc1nc(-c2ccncc2)cs1)c1ccco1,11.5
8,COc1ccc(C(=O)NCC(=O)OCC(=O)NC(=O)c2ccc(C(C)(C)C)cc2)cc1OC,11.9
9,COc1ccc(/C(N)=N/OC(=O)c2ccc(C)c([N+](=O)[O-])c2)cc1,0.038
10,CCC(=O)N1CCc2cc(S(=O)(=O)NCCCOC)ccc21,15.3
11,CC(=O)Nc1ccc(OCC(O)CN2C(C)(C)CC(O)CC2(C)C)cc1 (stereo not shown),10.7
12,O=C(NN1S(=O)(=O)c2ccccc2S1(=O)=O)c1ccc(Br)cc1,-13.4
13,O=C(CCN1C(=O)/C(=C/c2ccccc2Cl)SC1=S)Nc1cccnc1,8.44
14,COc1ccc(COC(=O)C2=C(C)NC(=O)NC2c2ccccc2OC(C)C)cc1 (stereo not shown),13.4
15,CN1CCCN(c2ccc([N+](=O)[O-])cc2)CC1,-21.2
16,Cc1nn(CC(=O)NNC(=O)c2ccc(Br)cc2)c(C)c1[N+](=O)[O-],-0.801
17,CC1(C(=O)OCC(=O)N2c3ccccc3Sc3ccccc32)CC1(Cl)Cl (stereo not shown),-2.87
18,COc1ccc(OC)c(NC(=O)c2cccnc2Sc2ccccc2)c1,2.44
19,O=C(CCc1ccccc1)NCc1cccnc1,-6.75
20,COc1ccc(Cc2noc(CN3CCC(c4ccncc4)CC3)n2)cc1OC,-2.78

row,SMILES,"hERG current change (%, negative = inhibition) at 1uM [%]"
1,N#Cc1cccc(NC(=O)COC(=O)c2cccc(N3C(=O)c4ccccc4C3=O)c2)c1,7.01
2,Cc1ccc2c(c1)nnn2C1CCN(C(=O)c2cccs2)CC1,-22.1
3,c1ccc(NCc2ccccn2)cc1,-5.15
4,COc1ccc(CNC(=O)COc2cccnc2[N+](=O)[O-])cc1OC,13.1
5,Cc1ccccc1C(=O)N1CCN(c2ccc(NC(=O)CSc3ccc(Cl)cc3)cc2)CC1,11.5
6,CC(=O)c1ccc(NC(=O)C2CCC(C)NC2=O)cc1 (stereo not shown),0.221
7,O=C(CSC(=S)N1CCCCC1)Nc1ncc2c(n1)CC(c1ccco1)CC2=O (stereo not shown),-0.867
8,CCS(=O)(=O)c1ccc2oc(=O)c(/C=C(\O)c3ccc(Cl)cc3)nc2c1,11.8
9,COc1ccccc1CNC(=O)N1CCN(c2ccccc2C)CC1,10.4
10,Cn1c(CN2CCOCC2)nnc1SCC(=O)Nc1cc(Cl)ccc1Cl,3.99
11,CCCn1nc(C(=O)OCC(=O)Nc2ncc(Cl)c(C)c2Cl)c2ccccc2c1=O,8.8
12,CCOc1ccc2nc3ccc4[nH]onc4c3c2c1,10.6
13,CCc1ccccc1NC(=O)CN(C)C(=O)CSc1nc2cc(Cl)ccc2s1,22.3
14,Nn1c(SCC(=O)Nc2nnc(-c3ccccc3)o2)nnc1C1CC1,10.3
15,Cl.N=c1ccn(Cc2ccc(Cl)cc2Cl)cc1,-1.41
16,O=C(Nc1ccccc1N1CCOCC1)c1ccc([N+](=O)[O-])cc1,6.82
17,CN(C)C1(CNC(=O)c2cccc(S(=O)(=O)NCc3ccccc3)c2)CCCCC1,-7.97
18,COc1ccc(C(=O)/C=C/NCc2ccc(C)cc2)cc1,0.382
19,Cc1cc(CNC(=O)CC2C(=O)NCCN2Cc2ccccc2C(F)(F)F)on1 (stereo not shown),9.63
20,FC(F)Oc1ccc(NC(=S)NCCc2ccccn2)cc1,5.3

row,SMILES,"hERG current change (%, negative = inhibition) at 1uM [%]"
1,c1ccc(CCNC2=NCCCS2)cc1,5.59
2,O=C(ON=C1CCN(c2ccc([N+](=O)[O-])cc2)CC1)c1ccccc1,-26
3,O=C(Nc1cccc2ccccc12)N1CCN(Cc2ccc3c(c2)OCO3)CC1,-0.329
4,Cc1ccc(S(=O)(=O)N=Nc2c(O)[nH]c3ccccc23)cc1,6.72
5,Cc1ccc(/C=C2\SC(=O)N(CCNC(=O)C3CSC4(C)CCC(=O)N34)C2=O)cc1 (stereo not shown),-22.9
6,CCn1c(SCc2cc(=O)n3ccsc3n2)nc2ccccc21,3.71
7,COc1ccc(C(=O)NCCCN2CCOCC2)cc1Br,9.03
8,CC(C)Nc1ncnc2c1cnn2-c1ccccc1,4.33
9,COC(=O)CCC(=O)Nc1cccc(C(=O)Nc2cccc(Cl)c2)c1,3.73
10,CCONC(=NC)c1nonc1N,16.3
11,COC(C(=O)NC1CC1)c1ccccc1 (stereo not shown),18.5
12,O=S(=O)(Nc1ccccc1Cl)c1ccc(F)cc1,-1.63
13,CCCNC(=O)c1nc(C)n(-c2cc(Cl)cc(Cl)c2)n1,-0.0954
14,O=C(CCS(=O)(=O)c1ccccc1)Nc1nc2ccc(F)cc2s1,-11.2
15,O=C(C(=O)c1ccc(O)cc1)c1ccccc1,16.9
16,COC(=O)c1ccc(S(=O)(=O)NNC(=O)c2ccc(S(=O)(=O)N3CCCCC3)cc2)cc1,3.54
17,Cc1ccccc1OS(=O)(=O)c1cn(C)c(=O)n(C)c1=O,14.5
18,CN(c1cccc(NC(=O)Cc2ccccc2)c1)S(C)(=O)=O,14.8

# Source: publication PMC4336329 (PLoS ONE, 2015)
